PubChem BioAssay AID1347165 (National Center for Advancing Translational Sciences (NCATS), 2019)
Among all 220,000 compounds or so, about 5,700 (2.6%) were called active. The inconclusive results got no clear call from the source; some entries with a clear call stand among them for comparison. Calls follow the shape of the dose curve; as a rule, active = well fitted inhibition curve with a large enough effect; inconclusive = small, poorly fitted or top-dose-only effect; inactive = no such curve, though single readings can be large or run the other way. Where the call is inconclusive, the potency comes from a doubtful curve fit.
Also: nearly all actives have a fitted effect of over 70% in size.
Potency is read from the fitted curve at half-maximal effect; tags tell the direction and shape of the fitted curve.

The compounds below were run against Lysine-specific demethylase 5B (Homo sapiens) (UniProt Q9UGL1) (assay: Primary screen for KDM5B Histone Demethylases FDH-coupled qHTS). Conditions: FDH-coupled NADH fluorescence (FDH is formaldehyde dehydrogenase); series mostly up to 57.7 µM.
Chain of UniProt Q9UGL1 (Q9UGL1 whole entry, looked up): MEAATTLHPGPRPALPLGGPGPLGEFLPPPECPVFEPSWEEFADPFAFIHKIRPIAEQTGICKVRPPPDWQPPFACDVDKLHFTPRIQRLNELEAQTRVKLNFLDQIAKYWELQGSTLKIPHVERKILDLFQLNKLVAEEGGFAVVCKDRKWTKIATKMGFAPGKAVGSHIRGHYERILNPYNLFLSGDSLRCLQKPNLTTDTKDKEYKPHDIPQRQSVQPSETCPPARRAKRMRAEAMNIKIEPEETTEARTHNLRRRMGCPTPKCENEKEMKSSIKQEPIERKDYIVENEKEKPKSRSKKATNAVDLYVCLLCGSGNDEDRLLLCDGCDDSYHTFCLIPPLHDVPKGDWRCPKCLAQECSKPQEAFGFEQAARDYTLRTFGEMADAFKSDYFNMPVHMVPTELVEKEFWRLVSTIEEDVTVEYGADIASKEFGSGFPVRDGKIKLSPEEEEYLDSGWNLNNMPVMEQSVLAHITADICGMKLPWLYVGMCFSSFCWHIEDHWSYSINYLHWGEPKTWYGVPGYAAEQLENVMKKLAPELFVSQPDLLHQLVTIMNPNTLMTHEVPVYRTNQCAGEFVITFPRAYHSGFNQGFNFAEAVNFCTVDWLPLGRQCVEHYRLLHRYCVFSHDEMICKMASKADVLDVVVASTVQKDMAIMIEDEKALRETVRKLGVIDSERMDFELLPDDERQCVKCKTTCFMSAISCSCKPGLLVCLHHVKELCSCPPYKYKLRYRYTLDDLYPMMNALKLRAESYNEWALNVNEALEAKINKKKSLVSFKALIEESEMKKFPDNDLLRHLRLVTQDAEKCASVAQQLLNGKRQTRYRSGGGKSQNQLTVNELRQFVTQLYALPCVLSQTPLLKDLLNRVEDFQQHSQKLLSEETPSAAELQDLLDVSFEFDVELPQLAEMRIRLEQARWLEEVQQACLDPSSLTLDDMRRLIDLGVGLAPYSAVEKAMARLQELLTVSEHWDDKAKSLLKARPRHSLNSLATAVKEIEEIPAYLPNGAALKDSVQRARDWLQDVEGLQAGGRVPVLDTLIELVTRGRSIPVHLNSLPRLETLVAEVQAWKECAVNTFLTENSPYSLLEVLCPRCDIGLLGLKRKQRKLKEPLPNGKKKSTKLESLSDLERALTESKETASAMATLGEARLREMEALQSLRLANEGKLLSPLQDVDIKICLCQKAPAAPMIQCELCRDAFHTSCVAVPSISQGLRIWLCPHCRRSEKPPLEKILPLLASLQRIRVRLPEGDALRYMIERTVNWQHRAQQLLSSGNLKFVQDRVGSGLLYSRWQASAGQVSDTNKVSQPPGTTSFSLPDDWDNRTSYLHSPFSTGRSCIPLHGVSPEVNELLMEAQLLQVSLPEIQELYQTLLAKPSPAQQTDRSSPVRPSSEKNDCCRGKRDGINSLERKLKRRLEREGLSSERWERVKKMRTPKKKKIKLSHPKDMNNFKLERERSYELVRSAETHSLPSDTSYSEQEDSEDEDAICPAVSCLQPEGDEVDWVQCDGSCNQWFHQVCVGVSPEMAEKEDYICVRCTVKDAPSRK
Method in brief: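 qHTS format, multiple compound concentrations. Buffer 50 mM HEPES pH 7.5/0.01% Tween-20; 200 nM KDM5BΔAP final; 10 min compound preincubation; substrate-mix levels 12.5 µM peptide, 25 µM α-KG, 0.25 mM NAD⁺; 30 min RT; ΔRFU.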
With O=C(Cn1ccn2nc(-c3ccc(F)cc3)c(CO)c2c1=O)N1CCCCCC1 the Potency was “inactive”.
For CCc1nc(-c2c3n(c(=O)n(CC(N)=O)c2=O)CCCCC3)no1, the Potency was “inactive”.
Cc1occc1C(=O)Oc1ccc(-c2ccc(C#N)cc2)cc1 was tested, and the Potency was “inactive”.
In the case of CC(=O)c1ccccc1NC(=O)COc1ccccc1C(N)=O, the Potency was “inactive”.
CN1CC(=O)N(C2CCCNCC2)Cc2c(NCCN3CCOCC3)ncnc21 (centres undefined) was tested, and the Potency was inconclusive: 39.8 µM [inhibitor, partial curve].
With CC(=O)Nc1ccc(NC(=O)c2cc3c(n2C)CCN(Cc2ccccc2)C3)cc1 the Potency was inconclusive: 17.8 µM [inhibitor, partial curve].
With CN(CCc1ccccc1)C1(C(=O)N2CCCC(C#N)C2)Cc2ccccc2C1 (centres undefined) the Potency was inconclusive: 15.8 µM [inhibitor, single point].
In the case of COc1ccc(N2CC(C(=O)NCC(F)(F)F)NC2=O)cc1 (centres undefined), the Potency was “inactive”.
For COc1cc(-c2nc(SCC(=O)NC3CCCC3)c(-c3ccccc3)[nH]2)cc(OC)c1OC, the Potency was inconclusive: 39.8 µM [inhibitor, partial curve, poor fit].
COc1ccc2nc(CO[C@H]3CN(Cc4ccc(S(C)(=O)=O)cc4)C[C@H]3F)[nH]c2c1 was tested, and the Potency was inconclusive: 39.8 µM [inhibitor, partial curve, poor fit].
With COCC(=O)N(C1CCOCC1)C1CCN(C(=O)c2ccc(OC)nc2)CC1 the Potency was “inactive”.
With Cc1cc(SCC(=O)Nc2c(F)cccc2F)nc2ccccc12 the Potency was “inactive”.
In the case of CC(C)c1nc2c(c(-c3ccc(O)cc3)n1)CN(Cc1cccc(C(F)(F)F)c1)CC2, the Potency was inconclusive: 22.4 µM [inhibitor, partial curve].
For CC(C)CC(=O)Nc1ccccc1, the Potency was “inactive”.
With CCOC(=O)c1[nH]c2ccccc2c1NC(=O)CCN1CCCCC1 the Potency was inconclusive: 31.6 µM [inhibitor, single point].
With c1cnc2nc(C3CCN(C4CCCCC4)C3)[nH]c2c1 (centres undefined) the Potency was inconclusive: 100 µM [inhibitor, partial curve, poor fit].
In the case of Cn1nc(C(=O)NCc2ccc(F)cc2)c2c1-c1ccccc1SC2, the Potency was inconclusive: 35.5 µM [inhibitor, single point].
In the case of C#CCN(C)Cc1nc(C2(O)CCN(C(=O)C3CCCCC3)CC2)cs1, the Potency was “inactive”.
In the case of Cc1cc(-c2ccccc2)n2nc(-c3cccc(Br)c3)cc2n1, the Potency was inconclusive: 3.16 µM [inhibitor, full curve, poor fit].
O=C(NC1C[C@H]2CC[C@@H](C1)N2C(=O)C1CCCCCC1)c1ccncc1 (some centres undefined) was tested, and the Potency was “inactive”.
With CCCCCn1nc(C(=O)Nc2cccc(C(C)=O)c2)c2ccccc2c1=O the Potency was inconclusive: 39.8 µM [inhibitor, single point].
Cc1ccc(C=Nc2ccc(Nc3ccccc3)cc2)s1 was tested, and the Potency was inconclusive: 28.2 µM [inhibitor, partial curve, poor fit].
Fc1ccc2nc(CO[C@H]3CN(Cc4ccccc4)C[C@H]3F)[nH]c2c1 was tested, and the Potency was “inactive”.
In the case of CC[C@@H](Nc1ncnc2c1CN(C1CCNCC1)C(=O)CN2C)c1ccccc1, the Potency was inconclusive: 50.1 µM [inhibitor, partial curve].
With CC(C)c1cc(=O)oc2cc(OCC(=O)NCCc3ccccc3)ccc12 the Potency was inconclusive: 28.2 µM [inhibitor, partial curve, poor fit].
In the case of CCc1ccc(NC(=O)N2c3ccccc3Sc3ccccc32)cc1, the Potency was inconclusive: 3.55 µM [inhibitor, full curve, poor fit].
In the case of CN(C)c1ncc2c(n1)C(C)(C(=O)Nc1ccccc1)CCC2 (centres undefined), the Potency was active: 35.5 µM.
In the case of O=C(Cn1cnc2onc(-c3ccc(F)cc3)c2c1=O)Nc1cccc(C(F)(F)F)c1, the Potency was inconclusive: 1.58 µM [inhibitor, partial curve, poor fit].
COc1ccccc1CNC(=O)c1cc2cccc3c2n1CC(C)S3 (centres undefined) was tested, and the Potency was inconclusive: 31.6 µM [inhibitor, partial curve, poor fit].
For CCOC(=O)c1ccc(NC(=O)c2nc(SC(C)C)ncc2Cl)cc1, the Potency was inconclusive: 25.1 µM [inhibitor, partial curve, poor fit].
FC(F)(F)c1nc2ccccc2n1Cc1nnc(-c2ccccc2Cl)o1 was tested, and the Potency was “inactive”.
In the case of Cc1nc2c(-c3ccccc3)c(C)nn2c(C)c1CCC(=O)NCc1ccc(Cl)cc1, the Potency was “inactive”.
With COc1cccc(COC(=O)c2ccc3c(c2)NC(=O)CS3)c1 the Potency was “inactive”.
CCCCn1ccc2nc3ccn(-c4ncn[nH]4)c(=O)c3cc2c1=O was tested, and the Potency was inconclusive: 1.78 µM [inhibitor, full curve, poor fit].
For CC1=C[C@@H](CNC2CCOCC2)[C@H](C(C)C)C[C@H]1Cc1nc2ccccc2n1C, the Potency was inconclusive: 56.2 µM [inhibitor, partial curve, poor fit].
In the case of CCN(CC(=O)Nc1ccc(S(=O)(=O)N2CCCC2)cc1)CC(=O)Nc1cccc(OC)c1, the Potency was inconclusive: 5.01 µM [inhibitor, full curve, poor fit].
For COc1cc(-c2cc3n(C)c(C)c(CCC(=O)NCc4ccccc4)c(=O)n3n2)cc(OC)c1OC, the Potency was inconclusive: 31.6 µM [inhibitor, single point].
O=C(N[C@H]1CCN2C(=O)c3cc(-c4ccc(Cl)cc4)ccc3NC(=O)[C@H]12)c1cccs1 was tested, and the Potency was active: 31.6 µM.
With CC1(COc2ccccc2)COc2ccc(C(=O)Nc3ccc4[nH]ccc4c3)cc2N1 (centres undefined) the Potency was inconclusive: 35.5 µM [inhibitor, single point].
For O=C(CCNc1c(-c2ccc(F)cc2)nc2cnccn12)Nc1ccc2c(c1)OCO2, the Potency was active: 25.1 µM.
With O=C(OCc1cccc([N+](=O)[O-])c1)C12CC3CC(CC(O)(C3)C1)C2 the Potency was “inactive”.
For CCOC(=O)c1cc2c(=O)n3ccccc3nc2n(C)c1=NC(=O)c1c(-c2ccccc2Cl)noc1C, the Potency was inconclusive: 28.2 µM [inhibitor, partial curve, poor fit].
COc1ccc(-n2cc(C(=O)Nc3cc(F)ccc3F)c3ccccc3c2=O)cc1 was tested, and the Potency was inconclusive: 35.5 µM [inhibitor, single point].
For COc1cc2[nH]c(C(=O)Nc3ccc(F)cc3)cc2c(OC)c1OC, the Potency was inconclusive: 25.1 µM [inhibitor, partial curve, poor fit].
